According to the supplement of paper PMC11166567:
Some of the results follow.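 Rule for the calls: active = permutation test q below 0.05 after Benjamini-Hochberg correction; inactive = q of 0.05 or more.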

Test system: A549
Assay: mean average precision of replicate retrieval against DMSO controls (Cell Painting phenotypic activity) (fraction (0-1)); higher = stronger, more reproducible morphological phenotype distinct from DMSO; extreme values may be limits of the assay
Details: 24 h; 5 µM
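Note: cosine similarity of well-level aggregated Cell Painting profiles ranks each compound's replicate wells against DMSO wells, four replicate plates, significance from 100,000 rank shuffles.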

| SMILES | mean average precision |
| --- | --- |
| COC(=O)C1=C(C#N)NC(C)=C(C(=O)OC(C)C)C1c1cccc([N+](=O)[O-])c1 (stereo not given) | active: 0.561 |
| CN1CCN(c2nc(C3=C(c4c[nH]c5ccccc45)C(=O)NC3=O)c3ccccc3n2)CC1 | active: 1 |
| CCC(c1ccc(O)cc1)C(CC)c1ccc(O)cc1 (stereo not given) | active: 0.46 |
| CC(C)[C@@H]1C(=O)N(S(C)(=O)=O)[C@@H]2CCN(C(=O)/C=C/CN3CCCCC3)[C@H]21 | active: 0.522 |
| Nc1nc(F)nc2c1ncn2[C@@H]1O[C@H](CO)[C@@H](O)[C@@H]1O | active: 1 |
| Nc1nnc(Sc2ncc([N+](=O)[O-])s2)s1 | active: 1 |
| COc1ccc(-c2coc3cc(O)ccc3c2=O)cc1 | inactive: 0.203 |
| COc1ccc(Cl)cc1[C@]1(F)C(=O)Nc2cc(C(F)(F)F)ccc21 | inactive: 0.174 |
| CCOC(=O)c1c2c3c(cccc3[nH]c1=O)C(=O)c1ccccc1-2 | active: 0.481 |
| O=C1C(Cl)=C(NCCN2CCOCC2)C(=O)c2ncccc21 | active: 0.534 |
| CCOc1ccc2nc(S(N)(=O)=O)sc2c1 | active: 0.889 |
| C[S+]([O-])c1ccc(-c2nc(-c3ccc(F)cc3)c(-c3ccncc3)[nH]2)cc1 (stereo not given) | active: 1 |
| CCCCCCOc1nsnc1C1=CCCN(C)C1 | active: 0.365 |
| CNC(=O)[C@H](Cc1c[nH]c2ccccc12)NC(=O)[C@@H](CC(=O)NO)CC(C)C | inactive: 0.145 |
| CCN[C@H]1CN(CCCOC)S(=O)(=O)c2sc(S(N)(=O)=O)cc21 | inactive: 0.278 |
| CC1Oc2cc(cnc2N)-c2c(nn(C)c2C#N)CN(C)C(=O)c2ccc(F)cc21 (stereo not given) | active: 1 |
| Oc1ccc(-c2nc(-c3ccc(F)cc3)c(-c3ccncc3)[nH]2)cc1 | active: 0.911 |
| CC1(C)C(=O)NC2=C1C(=O)C(=O)c1ccccc12 | active: 0.343 |

| SMILES | mean average precision |
| --- | --- |
| CCCCCCCC/C=C\CCCCCCCC(=O)OC(CO)CO | active: 0.463 |
| CC(C)c1ccc2oc3nc(N)c(C(=O)O)cc3c(=O)c2c1 | inactive: 0.117 |
| Cc1oncc1C(=O)Nc1ccc(C(F)(F)F)cc1 | active: 0.578 |
| CC(O)C(CO)NC(=O)C1CSSCC(NC(=O)C(N)Cc2ccccc2)C(=O)NC(Cc2ccccc2)C(=O)NC(Cc2c[nH]c3ccccc23)C(=O)NC(CCCCN)C(=O)NC(C(C)O)C(=O)N1 (stereo not given) | inactive: 0.187 |
| Cc1cc(C)cc(NC(=O)Cc2ccc(OC(C)(C)C(=O)O)cc2)c1 | active: 0.568 |
| CC(C)COCC(CN(Cc1ccccc1)c1ccccc1)N1CCCC1 (stereo not given) | active: 0.885 |
| CC1(C)O[C@@H]2C[C@H]3[C@@H]4CCC5=CC(=O)C=C[C@]5(C)[C@H]4[C@@H](O)C[C@]3(C)[C@]2(C(=O)CO)O1 | active: 1 |
| COc1ccc(C2Sc3ccccc3N(CCN(C)C)C(=O)C2OC(C)=O)cc1 (stereo not given) | active: 0.339 |
| Cc1cc(-c2ccc3c(c2)CC[C@H]3N2CC3(CCN(C(=O)Cc4cn5cc(C)sc5n4)CC3)C2)ncn1 | inactive: 0.202 |
| COC(=O)N(C)c1c(N)nc(-c2nn(Cc3ccccc3F)c3ncccc23)nc1N | active: 0.435 |
| Cc1cc(N2CCOCC2)cc2[nH]c(-c3c(NC[C@@H](O)c4cccc(Cl)c4)cc[nH]c3=O)nc12 | active: 1 |
| CCCCNc1ncc2c(-c3ccc(CN4CCN(C)CC4)cc3)cn(C3CCC(O)CC3)c2n1 (stereo not given) | active: 1 |
| O=C1CC[C@@H](C(=O)O)N1 | active: 0.489 |
| CCCC[C@@H](NC(=O)[C@@H](Cc1cn(C(=O)OC)c2ccccc12)NC(=O)[C@H](CC(C)(C)C)NC(=O)N1[C@H](C)CCC[C@@H]1C)C(=O)O | inactive: 0.218 |
| O=C(CSc1nc2c(c(=O)n1-c1ccccc1)SCC2)Nc1ccc(-c2ccccc2)cn1 | active: 0.789 |
| CCCCCCCCCCCCCCCCOc1nc2ccc(C)cc2c(=O)o1 | inactive: 0.263 |
| Cc1cccc(-c2[nH]c(C(C)(C)C)nc2-c2ccc3c(c2)OCO3)n1 | active: 0.887 |

Same assay, conditions: 48 h; 5 µM

| SMILES | mean average precision |
| --- | --- |
| COC(=O)C1=C(C#N)NC(C)=C(C(=O)OC(C)C)C1c1cccc([N+](=O)[O-])c1 (stereo not given) | active: 0.828 |
| CN1CCN(c2nc(C3=C(c4c[nH]c5ccccc45)C(=O)NC3=O)c3ccccc3n2)CC1 | active: 1 |
| CCC(c1ccc(O)cc1)C(CC)c1ccc(O)cc1 (stereo not given) | active: 0.724 |
| CC(C)[C@@H]1C(=O)N(S(C)(=O)=O)[C@@H]2CCN(C(=O)/C=C/CN3CCCCC3)[C@H]21 | active: 0.967 |
| Nc1nc(F)nc2c1ncn2[C@@H]1O[C@H](CO)[C@@H](O)[C@@H]1O | active: 1 |
| Nc1nnc(Sc2ncc([N+](=O)[O-])s2)s1 | active: 1 |
| COc1ccc(-c2coc3cc(O)ccc3c2=O)cc1 | active: 1 |
| COc1ccc(Cl)cc1[C@]1(F)C(=O)Nc2cc(C(F)(F)F)ccc21 | active: 0.477 |
| CCOC(=O)c1c2c3c(cccc3[nH]c1=O)C(=O)c1ccccc1-2 | active: 0.979 |
| O=C1C(Cl)=C(NCCN2CCOCC2)C(=O)c2ncccc21 | active: 1 |
| CCOc1ccc2nc(S(N)(=O)=O)sc2c1 | active: 0.666 |
| C[S+]([O-])c1ccc(-c2nc(-c3ccc(F)cc3)c(-c3ccncc3)[nH]2)cc1 (stereo not given) | active: 1 |
| CCCCCCOc1nsnc1C1=CCCN(C)C1 | active: 0.298 |
| CNC(=O)[C@H](Cc1c[nH]c2ccccc12)NC(=O)[C@@H](CC(=O)NO)CC(C)C | active: 0.931 |
| CCN[C@H]1CN(CCCOC)S(=O)(=O)c2sc(S(N)(=O)=O)cc21 | active: 0.616 |
| CC1Oc2cc(cnc2N)-c2c(nn(C)c2C#N)CN(C)C(=O)c2ccc(F)cc21 (stereo not given) | active: 1 |
| Oc1ccc(-c2nc(-c3ccc(F)cc3)c(-c3ccncc3)[nH]2)cc1 | active: 1 |
| CC1(C)C(=O)NC2=C1C(=O)C(=O)c1ccccc12 | active: 1 |

| SMILES | mean average precision |
| --- | --- |
| CCCCCCCC/C=C\CCCCCCCC(=O)OC(CO)CO | active: 0.498 |
| CC(C)c1ccc2oc3nc(N)c(C(=O)O)cc3c(=O)c2c1 | active: 0.33 |
| Cc1oncc1C(=O)Nc1ccc(C(F)(F)F)cc1 | active: 1 |
| CC(O)C(CO)NC(=O)C1CSSCC(NC(=O)C(N)Cc2ccccc2)C(=O)NC(Cc2ccccc2)C(=O)NC(Cc2c[nH]c3ccccc23)C(=O)NC(CCCCN)C(=O)NC(C(C)O)C(=O)N1 (stereo not given) | inactive: 0.212 |
| Cc1cc(C)cc(NC(=O)Cc2ccc(OC(C)(C)C(=O)O)cc2)c1 | active: 0.861 |
| CC(C)COCC(CN(Cc1ccccc1)c1ccccc1)N1CCCC1 (stereo not given) | active: 1 |
| CC1(C)O[C@@H]2C[C@H]3[C@@H]4CCC5=CC(=O)C=C[C@]5(C)[C@H]4[C@@H](O)C[C@]3(C)[C@]2(C(=O)CO)O1 | active: 1 |
| COc1ccc(C2Sc3ccccc3N(CCN(C)C)C(=O)C2OC(C)=O)cc1 (stereo not given) | active: 1 |
| Cc1cc(-c2ccc3c(c2)CC[C@H]3N2CC3(CCN(C(=O)Cc4cn5cc(C)sc5n4)CC3)C2)ncn1 | active: 0.979 |
| COC(=O)N(C)c1c(N)nc(-c2nn(Cc3ccccc3F)c3ncccc23)nc1N | active: 0.422 |
| Cc1cc(N2CCOCC2)cc2[nH]c(-c3c(NC[C@@H](O)c4cccc(Cl)c4)cc[nH]c3=O)nc12 | active: 1 |
| CCCCNc1ncc2c(-c3ccc(CN4CCN(C)CC4)cc3)cn(C3CCC(O)CC3)c2n1 (stereo not given) | active: 1 |
| O=C1CC[C@@H](C(=O)O)N1 | active: 0.529 |
| CCCC[C@@H](NC(=O)[C@@H](Cc1cn(C(=O)OC)c2ccccc12)NC(=O)[C@H](CC(C)(C)C)NC(=O)N1[C@H](C)CCC[C@@H]1C)C(=O)O | active: 0.276 |
| O=C(CSc1nc2c(c(=O)n1-c1ccccc1)SCC2)Nc1ccc(-c2ccccc2)cn1 | active: 1 |
| CCCCCCCCCCCCCCCCOc1nc2ccc(C)cc2c(=O)o1 | active: 0.322 |
| Cc1cccc(-c2[nH]c(C(C)(C)C)nc2-c2ccc3c(c2)OCO3)n1 | active: 1 |
